Data taken from publication PMC6919601, “Identification of Plasmodium dipeptidyl aminopeptidase allosteric inhibitors by high throughput screening” (PLoS ONE, 2019).
Where “and” joins values, the source holds several entries; their conditions need not be identical. Equal entries are not always repeated. The whole screen tested about 110,000 compounds, of which about 230 (0.21%) showed an effect of 50% or more. The list shows a part of the results.

target: DPAP1 (Plasmodium falciparum, UniProt Q8IIJ9); test: primary screen, percent inhibition; read by cleavage of a fluorogenic dipeptide substrate; higher = more effect of the substance; parameters: species or system P. falciparum D10 trophozoite lysates; single well
Sequence (Q8IIJ9 whole entry, looked up): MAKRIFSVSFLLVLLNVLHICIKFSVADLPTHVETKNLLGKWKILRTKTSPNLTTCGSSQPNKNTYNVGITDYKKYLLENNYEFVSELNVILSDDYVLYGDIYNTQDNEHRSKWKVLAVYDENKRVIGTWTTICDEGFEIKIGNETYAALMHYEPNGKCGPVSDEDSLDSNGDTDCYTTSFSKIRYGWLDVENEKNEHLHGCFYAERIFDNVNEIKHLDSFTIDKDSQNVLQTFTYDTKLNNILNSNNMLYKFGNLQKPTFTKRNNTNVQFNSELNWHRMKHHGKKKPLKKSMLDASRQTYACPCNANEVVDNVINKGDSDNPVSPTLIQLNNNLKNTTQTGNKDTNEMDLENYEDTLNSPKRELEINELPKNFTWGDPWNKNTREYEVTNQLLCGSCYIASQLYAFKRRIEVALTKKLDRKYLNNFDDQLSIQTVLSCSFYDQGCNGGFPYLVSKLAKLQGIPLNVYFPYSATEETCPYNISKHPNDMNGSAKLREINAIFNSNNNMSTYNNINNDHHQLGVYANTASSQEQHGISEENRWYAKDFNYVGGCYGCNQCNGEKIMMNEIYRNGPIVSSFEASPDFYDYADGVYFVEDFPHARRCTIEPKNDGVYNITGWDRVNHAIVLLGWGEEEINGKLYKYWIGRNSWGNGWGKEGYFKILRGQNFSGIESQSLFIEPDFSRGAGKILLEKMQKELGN
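Note: 30 min substrate incubation versus DMSO and 10 µM JCP410 controls.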

Row | Structure (SMILES) | % Inhibition @ 10 uM
1 | Cc1ccc(S(=O)(=O)N2CCC(C(=O)N3CCC(C(=O)NC(C)c4ccccc4)CC3)CC2)cc1 (stereo not drawn) | 5.23%
2 | CCOc1ccc(/C=C/c2nc(C#N)c(NCCc3ccc(OC)c(OC)c3)o2)cc1 | 0.895%
3 | CC1CCCN(C(=O)C2CCN(S(=O)(=O)c3cccc4nsnc34)CC2)C1 (stereo not drawn) | -7.16%
4 | N#Cc1c(SCC(N)=O)nc2c(c1-c1ccco1)CC/C2=C\c1ccco1 | 20.2%
5 | Cc1cc(C)c(S(=O)(=O)Nc2cnc3ccccc3c2)c(C)c1 | 0.266%
6 | Cc1ccnc(NS(=O)(=O)c2ccc(NC(=O)c3ccccc3Br)cc2)n1 | 0.812%
7 | COc1ccc(C2C(C#N)=C(N)Oc3ccc4ccccc4c32)cc1OC (stereo not drawn) | 4.08%
8 | CCOC(=O)N1CCN(C(=O)CN(c2ccc(C(C)C)cc2)S(=O)(=O)c2ccccc2)CC1 | 0.361%
9 | Cc1ccc(S(=O)(=O)N(CC(=O)Nc2ccc(S(N)(=O)=O)cc2)Cc2ccccc2F)cc1 | 0.367%
10 | COc1ccccc1/C=C/C(=O)c1ccco1 | 6.04%
11 | COc1ccc(C2OC3(C(=O)c4ccccc4C3=O)C3C(=O)N(c4ccccc4F)C(=O)C23)cc1 (stereo not drawn) | 5.39%
12 | CC(C)OCCCn1c(=O)c2ccccc2n2c(-c3cccs3)nnc12 | -1.72%
13 | COc1cc(NC(=O)CSc2ccccc2)c(C(=O)O)cc1OC | -3.39%
14 | Cc1cc(O)nc(-c2ccccc2O)n1 | -5.62% and 0.247%
15 | CCCOc1ccc(Br)cc1C1=CSC2=NCCN12 | -2.54%
16 | Clc1ccc(C(Cc2ccccc2)NC2CN3CCC2CC3)cc1 (stereo not drawn) | -2.99%
17 | O=C(CNS(=O)(=O)c1ccc(Br)cc1)N1CCN(Cc2ccc3c(c2)OCO3)CC1 | -7.28%
18 | CCOc1ccc(C2=CC(c3ccccc3F)n3nnnc3N2)cc1Cl (stereo not drawn) | -1.62%
19 | Fc1cnc(N2CCOCC2)nc1N1CCN(c2ccccc2)CC1 | 2.22%
20 | Cn1cc(NC(=O)Nc2cccnc2)c2ccccc2c1=O | 4.68%
21 | CCOC(=O)N1CCN(C(=O)C(NC(=O)C2CCC(C)CC2)C(C)C)CC1 (stereo not drawn) | 5.36%

Row | Structure (SMILES) | % Inhibition @ 10 uM
22 | O=C1CC(NCCC2=CCCCC2)C(=O)N1c1ccccc1 (stereo not drawn) | 6.1%
23 | Cn1c(=O)c2c(ncn2CC(O)Cn2c(Cc3ccccc3)nc3ccccc32)n(C)c1=O (stereo not drawn) | -2.98%
24 | c1ccc(-c2nc(CN3CCc4ccccc4C3)cs2)cc1 | -2.32%
25 | COc1ccc(OCC(O)CN2CCCC2)cc1 (stereo not drawn) | 0.605%
26 | CC1CCCC(C)N1C(=O)c1csc2c1CCCC2 (stereo not drawn) | 3.54%
27 | C#CCn1c(COc2ccc(C)cc2)nc2ccccc21 | -0.551%
28 | O=C(NCCN1CCCC1)C1CCC(CNS(=O)(=O)c2ccc(Cl)cc2)CC1 (stereo not drawn) | -2.72%
29 | COC(=O)c1[nH]c2ccccc2c1Sc1ccccc1 | -1.97%
30 | O=C(Nc1ccccc1)OC1C2CCC1C(N1CCCCC1)CC2 (stereo not drawn) | 6.83%
31 | COc1ccc2ccccc2c1C1CC(=O)N2CN(Cc3ccccc3)CSC2=C1C#N (stereo not drawn) | 35.8%
32 | C/C(=C1/SC(N2CCOCC2)=NC1=O)c1ccc(C)cc1 | -5.01%
33 | CCc1ccc(/C=C2/NC(=O)N(Cc3ccccc3F)C2=O)cc1 | -3.65%
34 | Cc1ccc2nc(O)c3cc(C(=O)N4CCN(c5ccccn5)CC4)sc3c2c1 | 0.231%
35 | Nc1nc(-c2ccccc2)cnc1C(=O)NCCO | -1.65%
36 | O=C(NC1(C(F)(F)F)Oc2ccccc2O1)N1CCCC1 | 1.01%
37 | CCOC(=O)c1ccc2nc(NC(=O)CSc3nnc(C)c(O)n3)sc2c1 | -0.671%
38 | O=C(O)Cc1ccc(-n2c(S)nnc2-c2ccc3ccccc3n2)cc1 | -6.71%
39 | COc1ccc2n[n+]([O-])c3ccc(OC)cc3c2c1 | 2.27%
40 | O=C(NC1CCCC1)c1cnn2c(C(F)(F)F)cc(-c3cccs3)nc12 | 1.16%
41 | O=C(NCc1ccccc1Cl)C1=CCN(S(=O)(=O)c2ccc(F)cc2)CC1 | -4.69%
42 | N#Cc1c(-c2ccccc2Cl)cc(C2CC2)nc1N | -5.49%

Row | Structure (SMILES) | % Inhibition @ 10 uM
43 | CCOC(=O)c1c(S(=O)(=O)NCCc2cccs2)c(C)n(C)c1C | 0.275%
44 | O=C(Nc1ccc(-c2noc(-c3ccccc3Br)n2)cc1)c1ccccn1 | 2.06%
45 | N#CC1=C(N)Oc2oc3ccccc3c(=O)c2C1c1cc(F)ccc1Br (stereo not drawn) | -6.62%
46 | Cn1cc(NC(=O)NCc2ccco2)c2ccccc2c1=O | 4.2%
47 | COc1cc(OC)cc(C(=O)N2CCN(Cc3ccc(OC)c(OCc4ccccc4)c3)CC2)c1 | -5.28%
48 | O=C(Nc1ccc(O)cc1)c1ccc2c(c1)C(=O)N(Cc1ccco1)C2=O | -3.04%
49 | Nc1nc(O)c2ncn([C@H]3C[C@H](O)[C@@H](CO)O3)c2n1 | -3.33%
50 | COc1ccccc1CNC(=O)Cn1ncc2c3ccccc3n(Cc3ccccc3)c2c1=O | 1.8%
51 | COc1cccc(CN2CCCC2CO)c1 (stereo not drawn) | 1.62%
52 | Cc1ccc2c(C)nc(Nc3ncc4c(n3)CCCC4=O)nc2c1 | -0.545%
53 | CNC(C)C1Oc2ccccc2OC1(C)C (stereo not drawn) | 6.7%
54 | Cc1nc(N)sc1-c1csc(Nc2cccc(O)c2)n1 | 9.29%
55 | CN1CCN(C(=O)c2c(NC(=O)c3ccccc3F)sc3c2CCCCC3)CC1 | -2.13%
56 | Cc1cc(/C=C(/C#N)C(=O)Nc2ccc(F)cc2)c(C)n1-c1ccc(Cl)c(Cl)c1 | 4.57%
57 | COCCN1C(=O)c2ccccc2C(C(=O)NCc2cccnc2)C1c1cn(C)c2ccccc12 (stereo not drawn) | -0.999%
58 | CCn1c(SCc2cc3c(cc2Br)OCO3)nnc1-c1ccoc1C | -1.85%
59 | CCn1c(C)cc(/C=C2\S/C(=N/c3ccc(N4CCOCC4)cc3)N(C)C2=O)c1C | -1.98%
60 | COc1ccc2c(c1)CC/C(=C\c1cccn1C)C2=O | -2.12%
61 | CC(C)Oc1ccc(C(=O)Nc2ccc(N3CCN(S(C)(=O)=O)CC3)cc2)cc1 | -4.12%
62 | COc1ccc(CN(C)S(=O)(=O)c2nnc(NC(=O)c3cccc4ccccc34)s2)cc1OC | -1.77%
63 | CCOc1ccc(-n2c(C)nc3cc(C(=O)NCCCN4CCOCC4)ccc32)cc1 | -0.458%
